Laboratory results from article PMC6832551, “An Antiviral Peptide from Alopecosa nagpag Spider Targets NS2B–NS3 Protease of Flaviviruses” (Toxins, 2019).

Experiments:
[1] = tested on: recombinant DENV2 NS2B–NS3 protease; test: Real-time fluorescence-based protease inhibition assay, DENV2 NS2B–NS3 protease; type: biochemical, dengue serotype-2 virus (DENV2); settings: real-time detection, RFU, excitation 360 nm, emission 460 nm
DENV2 = DENV2 replication in infected cells, qPCR of DENV genes; type: cell-based, dengue serotype-2 virus (DENV2); settings: HUVECs and A549 cells, DENV2 at 1 MOI for 24 h (legend: MOI 0.5), qPCR relative to human Hprt; three independent experiments

## CC(C)C[C@H]1C(=O)N2CCC[C@H]2[C@]2(O)O[C@](NC(=O)[C@@H]3C=C4c5cccc6[nH]c(Br)c(c56)C[C@H]4N(C)C3)(C(C)C)C(=O)N12 [bromocriptine, Bromocriptine mesylate]
[1]
  inhibition of the DENV2 NS2B–NS3 protease (in words): also inhibits the DENV2 NS2B–NS3 protease
DENV2
  replication of DENV2 (in words): also inhibits the DENV2 NS2B–NS3 protease and its replication

Counter-ions that a name gives are not always drawn.
